Experimental data from PubChem BioAssay AID504845 (National Center for Advancing Translational Sciences (NCATS), 2011).
The whole screen tested about 390,000 compounds, of which about 150 (0.038%) were called active. The shares of active, inactive and inconclusive entries below differ from those in the screen. Calls come from the whole dose curve; as a rule, active = well fitted inhibition curve with a large enough effect; inconclusive = small, poorly fitted or top-dose-only effect; inactive = no such curve, though single readings can be large or run the other way. A potency beside an inconclusive call is a rough fit, not a confirmed value.

What follows are molecules tested against Regulator of G-protein signaling 4 (Homo sapiens) (UniProt P49798) (assay: Inhibitors of Regulator of G Protein Signaling (RGS) 4: qHTS). Conditions: Transcreener GDP fluorescence polarization, RGS4-accelerated GTP hydrolysis; series mostly up to 114 µM.
Method in brief: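 MLSMR compounds (23 nl, pin-transferred) preincubated 10 min at room temperature with a 500nM (2x) first reagent, then RGS4 at 900nM (2x) plus Transcreener GDP mix added; fluorescence polarization (620/688 nm) read before and after 90 min at 30 °C.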
Note: nearly all actives have a fitted effect of over 75% in size.
Potency is the fitted concentration of half-maximal effect; tags give direction and shape of the fitted curve.

UniProt P49798, sequence (P49798 whole entry, looked up): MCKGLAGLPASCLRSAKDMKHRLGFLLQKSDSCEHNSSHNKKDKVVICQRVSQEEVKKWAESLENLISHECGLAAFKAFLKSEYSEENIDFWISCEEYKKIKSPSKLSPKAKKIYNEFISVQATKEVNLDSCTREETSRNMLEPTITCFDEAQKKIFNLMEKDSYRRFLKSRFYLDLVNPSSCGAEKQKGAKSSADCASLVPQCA

SMILES	Potency
CC1CCCCC1NC(=O)COC(=O)Cc1ccc(Br)cc1 (stereo not drawn)	inconclusive: 79.4 µM [inhibitor, single point]
OCCCNCc1ccc(Cl)cc1Cl	inconclusive: 79.4 µM [inhibitor, partial curve, poor fit]
O=C(c1cc(-c2ccc3c(c2)OCO3)on1)N1CCN(c2ccc(F)cc2)CC1	inactive
O=c1[nH]c2ccc(Cl)cc2c(-c2ccccc2)c1[N+](=O)[O-]	inconclusive: 50.1 µM [inhibitor, partial curve, poor fit]
Oc1ccc(Cc2ccccc2)c2cccnc12	inactive
O=Cc1s/c(=N\S(=O)(=O)c2ccccc2)n(CCCCl)c1Cl	inconclusive: 89.1 µM [inhibitor, partial curve, poor fit]
CCOc1ccccc1NC(=O)C(NS(=O)(=O)c1ccc2c(c1)CCC(=O)N2)c1ccccc1 (stereo not drawn)	inactive
COc1ccc(/C=N/NC(=O)COc2ccc3ccccc3c2)c(C(=O)O)c1OC	inconclusive: 31.6 µM [inhibitor, partial curve, poor fit]
CCOC(=O)C1=C(C)N(c2ccc(OCC)cc2)C(=O)/C1=C\c1ccco1	inconclusive: 35.5 µM [inhibitor, full curve, poor fit]
O=C(CSc1nncn1-c1ccccc1F)NC1CCCCC1	inconclusive: 79.4 µM [inhibitor, partial curve, poor fit]
N#Cc1cnc(SCC(=O)c2ccccc2)nc1N	inconclusive: 17.8 µM [inhibitor, full curve, poor fit]
O=C(CCCN1C(=O)/C(=C\c2ccccc2)SC1=S)Nc1cccc(C(=O)O)c1	inactive
CC(NC(=O)c1nn(C)c2c1CSc1ccccc1-2)c1ccccc1 (stereo not drawn)	inactive
C/C=C\C=C/C(=O)Nc1cccc(C2=NOC3(C2)C[C@@H](C(N)=O)N(C(=O)CCCCC)C3)c1 (stereo partly drawn)	inconclusive: 17.8 µM [inhibitor, full curve, poor fit]
C=CCN1CCN(c2nc3ccccc3nc2C#N)CC1	inconclusive: 0.844 µM [inhibitor, partial curve, poor fit]
COc1cc(C(=O)NCc2nnc(SCC(=O)c3ccccc3)o2)cc(OC)c1OC	inactive
COc1ccc(-c2cccc3c2NC(=O)C3=O)cc1OC	inconclusive: 50.1 µM [inhibitor, partial curve, poor fit]
CCN1CC2=C(OC(N)=C(C#N)C2c2ccccc2)/C(=C\c2ccccc2)C1 (stereo not drawn)	inconclusive: 89.1 µM [inhibitor, single point]
O=C(O)CN1C(=O)/C(=C\c2cccc(OCc3ccccc3)c2)SC1=S	inconclusive: 89.1 µM [inhibitor, partial curve, poor fit]
CCN(CC)S(=O)(=O)c1ccc(N/N=C/c2ccc(OC)c(OC)c2OC)nc1	inconclusive: 44.7 µM [inhibitor, partial curve, poor fit]
Cc1cc(C)c2c(=O)c3c(oc2c1)C(=O)N(Cc1ccc(F)cc1)C3c1cccc(O)c1 (stereo not drawn)	inactive

SMILES	Potency
COc1ccc(C2=CC3=C(Br)C(=O)C(C)(O)C(=O)C3=CO2)cc1 (stereo not drawn)	inconclusive: 70.8 µM [inhibitor, partial curve, poor fit]
Cc1cccc(CSCCNC(=O)c2ccc(N(C)S(=O)(=O)c3ccccc3)cc2)c1	inconclusive: 50.1 µM [inhibitor, partial curve, poor fit]
CCCC(=O)Nc1cc(C)c(NC(=O)c2ccco2)cn1	inconclusive: 100 µM [inhibitor, single point]
O=C(Cn1cnc2c(OCc3ccccc3)ncnc21)NCc1nc2ccccc2[nH]1	inconclusive: 28.2 µM [inhibitor, full curve, poor fit]
CCN(CC)CCCNc1ccc2ncn3c4ccc(O)cc4c(=O)c1c23	inconclusive: 100 µM [inhibitor, single point]
CCOC(=O)C1(C)NC(c2cccs2)C2C(=O)N(c3ccc(OC)cc3)C(=O)C21 (stereo not drawn)	inconclusive: 20 µM [inhibitor, full curve, poor fit]
COc1ccc(CCn2c(-c3ccc(C(C)(C)C)cc3)n[nH]c2=S)cc1OC	inconclusive: 22.4 µM [inhibitor, full curve, poor fit]
NC(=S)Nc1ccc2cc[nH]c2c1	inconclusive: 79.4 µM [inhibitor, partial curve, poor fit]
CCCCCCCCCCCCC/C=C/[C@@H](O)[C@H](CO)NC(=O)CCCCCCCCCCCCCCC	inconclusive: 0.212 µM [inhibitor, full curve, poor fit]
CC(C)CN1C(=O)CC(Sc2ccccc2C(=O)O)C1=O (stereo not drawn)	inactive
O=C(COC(=O)c1ccccc1)Nc1cccc(S(=O)(=O)NC2=NCCCCC2)c1	inconclusive: 79.4 µM [inhibitor, partial curve, poor fit]
Cc1cccc(/C=C2/S/C(=N/N=C3\CC4CCC3(C)C4(C)C)NC2=O)c1 (stereo not drawn)	inconclusive: 89.1 µM [inhibitor, single point]
O=C(c1ccccc1Oc1ccccc1)N1CCN(c2ccccc2)CC1	inconclusive: 79.4 µM [inhibitor, single point]
CCOC(=O)c1c(NC(=O)CSc2nnc(-c3ccccc3C)n2C)sc(C(C)=O)c1C	inconclusive: 100 µM [inhibitor, single point]
Cc1ccccc1C(=O)NC(=S)Nc1sc2c(c1C#N)CCCC2	inconclusive: 70.8 µM [inhibitor, partial curve, poor fit]
O=C(c1cccs1)N(Cc1ccco1)c1ccc(O)cc1	inactive
O=C(Nc1ccc(Cl)cc1)OCc1cn(-c2ccc(Cl)cc2)nn1	inconclusive: 28.2 µM [inhibitor, full curve, poor fit]
C[C@H]1C(=O)N(C)CCN1C(=O)c1cccc(OC2CCN(CC(C)(C)C)CC2)c1	inactive
Cc1ccc(NC(=O)COC(=O)c2ccc(NC(=O)CC#N)cc2)cc1S(=O)(=O)N1CCOCC1	inactive
N#CCCn1cc(C=C(C#N)C#N)c(-c2ccc(-c3ccccc3)cc2)n1	inconclusive: 56.2 µM [inhibitor, partial curve, poor fit]
CCS(=O)(=O)c1ncc(Cl)c(C(=O)N(Cc2ccccc2)c2ccc(OC)cc2)n1	inconclusive: 17.8 µM [inhibitor, full curve, poor fit]

SMILES	Potency
CCOC(=O)/C(C#N)=C1\C(=O)N(Cc2ccccc2)c2ccccc21	inconclusive: 31.6 µM [inhibitor, full curve, poor fit]
CCOc1ccc2c(c1)c(=O)c(C(=O)c1ccc(C)cc1)cn2Cc1ccccc1OC	inactive
COc1ccc(C(c2c(C)[nH]n(C(N)=S)c2=O)C(C#N)C#N)cc1 (stereo not drawn)	inconclusive: 28.2 µM [inhibitor, full curve, poor fit]
CN(C)CCC(=O)C(Cc1ccccc1)c1ccccc1 (stereo not drawn)	inconclusive: 39.8 µM [inhibitor, partial curve, poor fit]
COc1ccc2c(C)cc(SCC(=O)Nc3cc(C(N)=O)cc(C(N)=O)c3)nc2c1	inconclusive: 17.8 µM [inhibitor, full curve, poor fit]
N#C/C(=C\c1ccccc1)C(=O)NCc1ccc(F)cc1	inconclusive: 56.2 µM [inhibitor, partial curve, poor fit]
COc1ccc(-c2[nH]c(-c3ccc4c(c3)OCO4)nc2-c2ccccc2)cc1	inconclusive: 79.4 µM [inhibitor, single point]
COc1ccc(CCN2C(=O)C3C(C2=O)C2C=CC3C23CC3)cc1OC (stereo not drawn)	inconclusive: 100 µM [inhibitor, single point]
Oc1ccc(Cl)cc1N=Cc1sc2ccccc2c1Cl	inactive
COc1ccc(/C=C2/C(=O)N(Cc3ccccc3)N=C2C)cc1	inconclusive: 17.8 µM [inhibitor, full curve, poor fit]
C/C(=N\NC(N)=S)C1C2C3CC4C5CC(C42)C1C53 (stereo not drawn)	inconclusive: 44.7 µM [inhibitor, partial curve, poor fit]
CCOC(=O)C1CCCN(C(=O)c2ccc(NC(=O)c3nsc4ccccc34)cc2)C1 (stereo not drawn)	inactive
Cc1[nH]c2ccccc2c1/C=N/NC(=O)CCC(=O)Nc1ccccc1	inconclusive: 31.6 µM [inhibitor, partial curve, poor fit]
Cc1ccc(C(=O)CC2(O)C(=O)N(Cc3ccccc3)c3ccccc32)c(C)c1 (stereo not drawn)	inconclusive: 31.6 µM [inhibitor, partial curve, poor fit]
O=C(c1ccccc1)c1ccccc1N1C(=O)C=CC1=O	inconclusive: 17.8 µM [inhibitor, full curve, poor fit]
COc1ccc2nc3n(c(=O)c2c1)-c1ccc(Cl)cc1C(=O)NC3Cc1ccc(O)cc1 (stereo not drawn)	inactive
CCCNC(=O)Cn1c(SCc2ccccc2C)nc2ccncc21	inactive
COC1=C(C)C(=O)C2=C(C1=O)C1C3CC4=C(C(=O)C(OC)=C(C)C4=O)C(CNC(=O)C(C)=O)N3C(C#N)C(C2)N1C (stereo not drawn)	inconclusive: 79.4 µM [inhibitor, partial curve, poor fit]
S=c1[nH]nc(-c2ccccn2)n1/N=C/c1ccc(Br)s1	inconclusive: 17.8 µM [inhibitor, full curve, poor fit]
COc1ccccc1NS(=O)(=O)c1cc(C(=O)NC2CCN(Cc3ccccc3)CC2)ccc1C	inactive
CCCSc1nnc2[nH]c(=O)cc(N)n12	inconclusive: 89.1 µM [inhibitor, single point]
